Test results from article PMC12756210.
No constants are given. Whether binding was seen depends on the method and setting. In cells and extracts the contact can be indirect. Some binding calls cover weakened binding; strength is not graded here. Where a sequence is shown, tags or fusion partners need not be part of it.

Assays:
GUS-cYFP = GUS-cYFP (UniProt P05804); assay: split reporter; BiFC: nYFP and cYFP fusions transiently co-expressed in N. benthamiana leaves with CBL1-OFP as plasma membrane marker; YFP fluorescence read 48 h after transfection
ZIP5-cYFP (Arabidopsis) = target: T1, ZIP5-cYFP (Arabidopsis) (UniProt O23039); assay: as above
T1 sequence: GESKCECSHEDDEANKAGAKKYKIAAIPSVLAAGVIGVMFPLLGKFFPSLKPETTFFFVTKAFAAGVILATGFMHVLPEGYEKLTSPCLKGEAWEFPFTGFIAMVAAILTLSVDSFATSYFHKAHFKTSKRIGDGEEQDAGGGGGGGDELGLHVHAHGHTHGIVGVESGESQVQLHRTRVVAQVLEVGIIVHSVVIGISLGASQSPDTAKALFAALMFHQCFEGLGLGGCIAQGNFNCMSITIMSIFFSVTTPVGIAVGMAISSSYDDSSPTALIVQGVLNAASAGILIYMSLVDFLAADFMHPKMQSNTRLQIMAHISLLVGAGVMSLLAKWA

ZIP2-cYFP (Arabidopsis) = target: T2, ZIP2-cYFP (Arabidopsis) (UniProt Q9LTH9); assay: as above
T2 sequence: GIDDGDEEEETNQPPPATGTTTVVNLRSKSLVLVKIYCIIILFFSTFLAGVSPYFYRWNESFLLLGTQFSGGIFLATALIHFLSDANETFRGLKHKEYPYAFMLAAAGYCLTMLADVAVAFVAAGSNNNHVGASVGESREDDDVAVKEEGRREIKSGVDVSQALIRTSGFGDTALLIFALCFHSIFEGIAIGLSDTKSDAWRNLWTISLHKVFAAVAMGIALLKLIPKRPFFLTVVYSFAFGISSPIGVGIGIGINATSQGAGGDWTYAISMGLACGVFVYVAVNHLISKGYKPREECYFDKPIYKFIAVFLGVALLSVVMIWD

ZIP5-cLUC (Arabidopsis) = target: T3, ZIP5-cLUC (Arabidopsis) (UniProt O23039); assay: split reporter; split luciferase complementation imaging (LCI): nLUC and cLUC fusions co-infiltrated by Agrobacterium GV3101 into N. benthamiana leaves, expressed 48 h, signal read by CCD
T3 sequence: T1 sequence

ZIP2-cLUC (Arabidopsis) = target: T4, ZIP2-cLUC (Arabidopsis) (UniProt Q9LTH9); assay: as above
T4 sequence: T2 sequence

GUS-cLUC = GUS-cLUC (UniProt P05804); assay: as above
GUS-cLUC, P05804 = assay: as above; details: remark: other sources report otherwise

B1: CIPK26-nYFP (protein, UniProt Q84VQ3 1-439)
chain: MNRPKVQRRVGKYEVGKTLGQGTFAKVRCAVNTETGERVALKILDKEKVLKHKMAEQIRREICTMKLINHPNVVRLYEVLASKTKIYIVLEFGTGGELFDKIVHDGRLKEENARKYFQQLINAVDYCHSRGVYHRDLKPENLLLDAQGNLKVSDFGLSALSRQVRGDGLLHTACGTPNYAAPEVLNDQGYDGATADLWSCGVILFVLLAGYLPFEDSNLMTLYKKIIAGEYHCPPWLSPGAKNLIVRILDPNPMTRITIPEVLGDAWFKKNYKPAVFEEKEEANLDDVDAVFKDSEEHHVTEKKEEQPTSMNAFELISMSRALDLGNLFEEEEGFKRETRFAAKGAANDLVQKIEEASKPLGFDIQKKNYKMRLENVTAGRKGNLRVATEIFQVSPSLHMIEVRKTKGDTLEFHKFYKKLSTSLNDVVWKSGESSGLSK
binding (GUS-cYFP): no binding
binding (ZIP5-cYFP (Arabidopsis)): no binding
binding (ZIP2-cYFP (Arabidopsis)): binds

B2: CIPK26-nLUC (protein, UniProt Q84VQ3 1-439)
chain: B1 chain
binding (ZIP5-cLUC (Arabidopsis)): no binding
binding (ZIP2-cLUC (Arabidopsis)): binds
binding (GUS-cLUC): no binding

B3: GUS-nLUC, P05804 1-603 (protein)
chain: MLRPVETPTREIKKLDGLWAFSLDRENCGIDQRWWESALQESRAIAVPGSFNDQFADADIRNYAGNVWYQREVFIPKGWAGQRIVLRFDAVTHYGKVWVNNQEVMEHQGGYTPFEADVTPYVIAGKSVRITVCVNNELNWQTIPPGMVITDENGKKKQSYFHDFFNYAGIHRSVMLYTTPNTWVDDITVVTHVAQDCNHASVDWQVVANGDVSVELRDADQQVVATGQGTSGTLQVVNPHLWQPGEGYLYELCVTAKSQTECDIYPLRVGIRSVAVKGEQFLINHKPFYFTGFGRHEDADLRGKGFDNVLMVHDHALMDWIGANSYRTSHYPYAEEMLDWADEHGIVVIDETAAVGFNLSLGIGFEAGNKPKELYSEEAVNGETQQAHLQAIKELIARDKNHPSVVMWSIANEPDTRPQGAREYFAPLAEATRKLDPTRPITCVNVMFCDAHTDTISDLFDVLCLNRYYGWYVQSGDLETAEKVLEKELLAWQEKLHQPIIITEYGVDTLAGLHSMYTDMWSEEYQCAWLDMYHRVFDRVSAVVGEQVWNFADFATSQGILRVGGNKKGIFTRDRKPKSAAFLLQKRWTGMNFGEKPQQGGKQ
binding (GUS-cLUC, P05804): no binding
